Measured values reported in patent US9567399 (dated 2017).

Target: human PD-L1 His (human)
Test: SPR, 25C

Kd: 290 pM
B1: 1D05 IgG1 disabled (antibody)
chain 1: EVQLVESGGGLVQPGRSLRLSCAASGFTFDDYAMHWVRQVPGKGLEWVSGISWIRTGIGYADSVKGRFTIFRDNAKNSLYLQMNSLRAEDTALYYCAKDMKGSGTYGGWFDTWGQGTLVTVSS[human IgG1 constant region with L235A G237A (EU numbers) omitted]
chain 2: [about 100 residues omitted][about 100 residues omitted]
